The campaign covered roughly 48,000 compounds. About 550 (1.1%) were called active. Another 4% or so got no clear call; they are omitted. Rule as the data show it: active = potency below about 15 µM; inconclusive = mostly about 16 µM to 33 µM; inactive = weaker than that. Some of the results follow.
target: Lysosomal acid glucosylceramidase (Homo sapiens) (UniProt P04062); assay: Glucocerebrosidase; details: purified enzyme, resorufin glucoside fluorescence (screen aimed at inhibitors), 20 min;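 also: the screen sought inhibitors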
Text: NCGC Assay Overview: Beta-glucocerebrosidase catalyzes the hydrolysis of beta-glucocerebroside to glucose and ceramide. The inherited deficiency of beta-glucocerebrosidase results in Gaucher disease, which is characterized by a wide variety of symptoms including hepatosplenomegaly, anemia, thrombocytopenia, bony lesions and bone marrow infiltration with characteristic storage cells, known as Gaucher cells. There are also forms of the disorder affecting the central nervous system. Patients with the same genotypes can manifest with diverse clinical presentations and it is believed that improper folding and trafficking of beta-glucocerbrosidase may contribute to the phenotypes observed. Low molecular weight molecules, acting as chaperones, may potentially restore trafficking of misfolded beta-glucocerebrosidase from the endoplasmic reticulum to the lysosomes, thereby enhancing functional lysosomal beta-glucocerebrosidase activity. Using normal beta-glucocerebrosidase, an assay was developed to screen for small molecule inhibitors that could potentially act as molecular chaperones on the mutant forms [developed with NIH investigator Dr. Ellen Sidransky's laboratory]. Two pro-fluorescent substrates were chosen for two screens against a small molecule library. One beta-glucocerebrosidase assay used Resorufin beta-D-Glucopyranoside (Marker Gene Technology Inc.), generating a red fluorescent product. The second assay used Fluorescein di-beta-D-Glucopyranoside, generating a blue fluorescent product. […] The IC50 values of Conduritol B Epoxide, a known glucocerebrosidase inhibitor, were determined to be 87.5 uM and 117 uM, respectively. The use of two difference pro-fluorescent substrates in the screens helped to eliminate false positives. All compounds were screened in a titration series resulting in AC50s (e.g., IC50s or EC50s).
NCGC Assay Protocol Summary: Both enzyme and substrate were diluted in buffer composed of 50mM citric acid/KH2PO4, 10mM sodium taurocholate and 0.01% tween-20 at pH 5.9. The final concentration of the enzyme was 0.2 nM in both assays. The compound library was titrated in 7 to 15 concentrations for the primary screens with a final concentration ranging from 0.6 nM to 50 uM. This particular assay protocol is for the "red" substrate, and it was performed in 1536-well plate format as follows: Red fluorescence substrate assay: 2 uL enzyme 23 nL compound 1 uL substrate (final concentration of 30 uM) Incubate at room temperature (RT) for 20 minutes Read the plate in Viewlux plate reader (Ex=548(7) and Em=600(10)).
Potency is read from the fitted curve at half-maximal effect.

Chain of UniProt P04062 (P04062 whole entry, looked up): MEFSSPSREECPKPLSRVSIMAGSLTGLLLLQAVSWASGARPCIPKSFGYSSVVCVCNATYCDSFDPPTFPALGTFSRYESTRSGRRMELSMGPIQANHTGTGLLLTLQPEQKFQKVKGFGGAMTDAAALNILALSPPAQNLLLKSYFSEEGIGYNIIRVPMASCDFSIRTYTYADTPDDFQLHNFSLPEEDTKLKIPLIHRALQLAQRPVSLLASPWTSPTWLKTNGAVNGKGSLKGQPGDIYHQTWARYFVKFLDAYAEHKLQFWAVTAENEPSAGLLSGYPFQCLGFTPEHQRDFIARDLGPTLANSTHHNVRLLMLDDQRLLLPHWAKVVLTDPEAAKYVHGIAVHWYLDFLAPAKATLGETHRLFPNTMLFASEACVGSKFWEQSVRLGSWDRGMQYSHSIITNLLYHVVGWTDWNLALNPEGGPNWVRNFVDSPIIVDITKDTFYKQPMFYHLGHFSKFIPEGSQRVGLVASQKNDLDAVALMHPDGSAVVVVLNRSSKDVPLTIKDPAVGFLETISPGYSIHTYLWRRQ

Potency, inactive:
O=C(CCc1ccc(S(=O)(=O)N2CCCCC2)cc1)c1nnc(-c2ccccc2)o1 > 76.9 µM
Cc1ccc(-c2nnc(N(C)C(=O)c3ccccn3)s2)cn1 > 76.9 µM
Cc1cc(C)cc(NC(=O)C2CCN(c3nc(C)cc(C)n3)CC2)c1 > 76.9 µM
COc1ccc2[nH]c(=O)c(-c3noc(-c4ccc(F)cc4)n3)cc2c1 > 76.9 µM
Cc1ccc(-c2csc3nc(=O)c(C)nn23)cc1 > 76.9 µM
Cc1ccc(-n2c(Cc3cccn3C)nnc2SCC(=O)Nc2nnc(C)s2)cc1
O=C(O)c1ccc2c(c1)nnn2C1CCCCC1 > 76.9 µM
O=C(Nc1ccc2c(c1)OCO2)C1CCN(C(=O)c2cccs2)CC1 > 76.9 µM
COc1ccc(CC(=O)NC(C)c2nnc(SCC(=O)Nc3nc(C)cs3)n2C)cc1 (stereo not drawn) > 76.9 µM
COC(=O)c1cc2c(=O)n3ccccc3nc2n(Cc2cccnc2)c1=N > 76.9 µM
O=C(Oc1cccc(N2C(=O)CCC2=O)c1)C1CC(=O)N(c2ccc(F)cc2)C1 (stereo not drawn) > 76.9 µM
CCC(C)NC(=O)C1CCC(=O)N(c2cc(OC)c(OC)c(OC)c2)C1c1ccc(OC)cc1 (stereo not drawn) > 76.9 µM
CCOC(=O)C1CCN(S(=O)(=O)c2ccc(-n3cnnn3)c(C)c2)CC1 > 76.9 µM
CCOC(=O)N1CCC(Nc2nc3ccccc3nc2NS(=O)(=O)c2ccc(Cl)cc2)CC1 > 76.9 µM
CC1(O)c2ccccc2C(=O)N1Cc1ccccc1 (stereo not drawn) > 76.9 µM
COc1ccc(CNC(=O)C2CCCN(S(=O)(=O)c3cc(C)ccc3OC)C2)cc1 (stereo not drawn) > 76.9 µM
Cc1sc2nc(CN3CCN(S(=O)(=O)c4cccc5nonc45)CC3)[nH]c(=O)c2c1C > 76.9 µM
CCOC(=O)C(C)Sc1nnc(CNC(=O)c2ccc(OC)cc2)n1C1CCCCC1 (stereo not drawn) > 76.9 µM
COC(=O)c1cc(-c2ccccc2)n(CC(=O)O)c1C > 76.9 µM
COc1cc(NC(=O)c2ncn[nH]2)cc(OC)c1OC > 76.9 µM
COc1ccc(N(CC(=O)Nc2cccc(OC)c2)S(=O)(=O)c2c(C)nn(C)c2C)cc1 > 76.9 µM
O=C(c1cc2ccccc2o1)c1nc2c(n1O)CCCCC2 > 76.9 µM
Cc1cccn2c(=O)c3cc(C#N)c(=O)n(-c4c(C)n(C)n(-c5ccccc5)c4=O)c3nc12 > 76.9 µM
COc1ccc(C2=CSC3=NCCN23)cc1F > 76.9 µM
Cc1ccc(OCC(O)CN2CCN(CC(O)COc3ccc(C)cc3)CC2)cc1 (stereo not drawn) > 76.9 µM
COC(=O)c1ccccc1NC(=O)CSc1nc(O)cc(=O)n1C1CCCC1 > 76.9 µM
O=C(c1cnccn1)N(c1ccccc1)C1(C(=O)NC2CCCC2)CCCCC1 > 76.9 µM
CCCCCn1c(=O)[nH]c2cc(C(=O)NCc3ccc4c(c3)OCO4)ccc2c1=O > 76.9 µM
Nc1nnc(-c2ccccc2Cl)s1 > 76.9 µM
Cc1ccc(S(=O)(=O)NC(CC(=O)O)c2ccco2)cc1 (stereo not drawn) > 76.9 µM
Cc1nc(Nc2cccc(C(F)(F)F)c2)nc2c1C(=O)CC(C)C2 (stereo not drawn) > 76.9 µM
Cc1cc(C)c2cc(CN(CCO)Cc3nnnn3Cc3ccccc3)c(=O)[nH]c2c1 > 76.9 µM
CCN(CC)CCNC(=O)c1ccc2c(c1)ncn2C1CCCCC1 > 76.9 µM
O=C(NC1CCCCC1)c1cc2nc3c(c(C(F)(F)F)n2n1)CCCC3 > 76.9 µM
COCCNC(=O)CCSCc1ccccc1F > 76.9 µM
O=C(COC(=O)c1ccco1)Nc1nc2ccccc2s1 > 76.9 µM
O=C(CN1C(=O)NC2(CCCCCCC2)C1=O)N1CCOCC1
Cn1cccc1C(C(=O)NC1CCCCC1)N(C(=O)Cc1cccs1)c1ccc2c(c1)OCO2 (stereo not drawn) > 76.9 µM
COc1ccc(C2C(C(=O)c3sc(C)nc3C)=C(O)C(=O)N2CCCn2ccnc2)cc1 (stereo not drawn) > 76.9 µM
CCOc1cc2[nH]c(=O)n(CC3CCC(C(=O)NCCCOC)CC3)c(=O)c2cc1OCC (stereo not drawn) > 76.9 µM
COc1cc(C(=O)OCC(=O)NC2CCCC2)cc(NC(=O)c2ccco2)c1OC > 76.9 µM
O=C(CSc1ccccc1)Nc1ccncc1 > 76.9 µM
CCCSc1nnc(CN2CCOCC2)n1C > 76.9 µM
c1nc(NCC2(N3CCOCC3)CCCCC2)c2ccsc2n1 > 76.9 µM
COc1ccc(N2CC(C(=O)Nc3ncccc3C)CC2=O)cc1 (stereo not drawn) > 76.9 µM
N#CCCCCN1c2cccc3cccc(c23)S1(=O)=O > 76.9 µM
O=C(c1ccc2ccccc2n1)N1CCN(c2ccccc2)CC1 > 76.9 µM
CC(C)(C)N(Cc1cc2ccccc2[nH]c1=O)C(=O)c1cccnc1 > 76.9 µM
O=C(CCN1CCCCC1)Nn1c(=S)[nH]c2ccccc2c1=O > 76.9 µM
CCOC(=O)c1c(NC(=O)COC(=O)Cn2cnc3ccccc32)sc(C)c1C > 76.9 µM
O=C(NCc1ccc(F)cc1)c1c(O)c2cccc3c2n(c1=O)CCC3 > 76.9 µM
Nc1c(C(=O)NCc2ccco2)nnn1-c1ccccc1 > 76.9 µM
COc1ccc(C(=O)N2CCN(Cc3cc(OC)c(O)c(OC)c3)CC2)cc1OC > 76.9 µM
CCNc1oc(COc2ccccc2F)nc1C#N > 76.9 µM
Cc1cc(C)n2nc(Nc3ccccc3)cc2n1 > 76.9 µM
CCOC(=O)c1cc(C)n(CCCN2CCOCC2)c1C > 76.9 µM
CCCc1[nH]nc2c1C(c1ccc(OC(=O)N3CCOCC3)c(OC)c1)C(C#N)=C(N)O2 (stereo not drawn) > 76.9 µM
CCOC(=O)C1CCCN(C(=O)c2cn(C)c(=O)c3cc(OC)c(OC)cc23)C1 (stereo not drawn) > 76.9 µM
COc1ccc(CC(=O)Nc2ccc(-c3noc(COc4ccccc4C)n3)cc2)cc1 > 76.9 µM
NC(=O)CSc1nnnn1-c1ccc(OC(F)(F)F)cc1 > 76.9 µM
O=C(COC(=O)c1cc(S(=O)(=O)N2CCOCC2)cs1)c1ccccc1 > 76.9 µM
CCOC(=O)Cc1nnc(NC(=O)Nc2ccccc2)s1 > 76.9 µM
O=C(OCC(O)C(O)COC(=O)c1ccccc1)c1ccccc1 (stereo not drawn) > 76.9 µM
O=C(NCc1n[nH]c(=S)n1-c1ccc(F)cc1)c1ccc(S(=O)(=O)N2CCCC2)cc1 > 76.9 µM
COCCN1C(=O)C(=O)/C(=C(/O)c2cccc(S(=O)(=O)N(C)C)c2)C12C(=O)N(C)c1ccccc12 (stereo not drawn) > 76.9 µM
Cc1ccc(CNC(=O)CCCOc2cc(=O)n(C)c3ccccc23)o1 > 76.9 µM
Cc1ccccc1Nc1nc(N)nc(COC(=O)c2cccn2C)n1 > 76.9 µM
Cc1ccc(S(=O)(=O)NC(C(=O)OCC(=O)NC(=O)c2cccn2C)C(C)C)cc1 (stereo not drawn) > 76.9 µM
COC(=O)C1=C(C)NC2=C(C(=O)c3ccccc32)C1c1ccc(-c2ccc(C(=O)O)cc2)o1 (stereo not drawn) > 76.9 µM
CCCCNC(=O)c1nn(-c2ccccc2OC)c(=O)c2ccccc12 > 76.9 µM
Cc1nnc(SCC(=O)Nc2cc(C(F)(F)F)ccc2N2CCOCC2)o1 > 76.9 µM
CCN1CCCC1CN(Cc1cc2cc(C)cc(C)c2[nH]c1=O)C(=O)Nc1ccccc1OC (stereo not drawn) > 76.9 µM
CCN(Cc1nc2ccccc2c(=O)[nH]1)Cc1nc2cc(OC)c(OC)cc2c(=O)[nH]1 > 76.9 µM
CC(=O)c1cc2c(=O)c3cc(C)ccc3oc2nc1C > 76.9 µM
COc1ccc(CCNC(=O)Cn2cnc3c(cnn3-c3ccccc3Cl)c2=O)cc1OC > 76.9 µM
CC(=O)OC1COC(n2ccc3ccccc32)C(OC(C)=O)C1OC(C)=O (stereo not drawn) > 76.9 µM
O=C(NCc1ccc2c(c1)OCO2)c1cccnc1 > 76.9 µM
O=C(Cc1cccs1)NCc1ccc2c(c1)OCO2 > 76.9 µM
Cc1ccc(Cn2c(CN(C)Cc3ccccc3)nc3c2c(=O)n(C)c(=O)n3C)cc1 > 76.9 µM
N#CC1=C(N)Oc2c(oc(CO)cc2=O)C12C(=O)Nc1ccc(Cl)cc12 (stereo not drawn) > 76.9 µM
COc1ccc(N(CC(=O)Nc2cc(C)ccc2OC)S(=O)(=O)c2c(C)noc2C)cc1 > 76.9 µM
CC1(C)Cc2cccc(OCC(O)CNCc3ccccn3)c2O1 (stereo not drawn) > 76.9 µM
CCC(=O)c1ccc(OCC(O)CN2CCOCC2)cc1 (stereo not drawn) > 76.9 µM
CCn1cc(C(=O)NCc2ccco2)c2cc(OC)c(OC)cc2c1=O > 76.9 µM
CCOc1ccc(OCC)c(NC(=O)C2CCCN(c3ncccn3)C2)c1 (stereo not drawn) > 76.9 µM
CC1(c2ccccc2)NC(=O)N(CCN2C(=O)c3ccccc3C2=O)C1=O (stereo not drawn) > 76.9 µM
CCN(CC)S(=O)(=O)c1ccc2nnn(OCC(=O)Nc3cccc(C#N)c3)c2c1
COc1ccc(OCCSc2nnc(-c3ccccc3)n2N)cc1 > 76.9 µM

Reference: PubChem BioAssay AID360 (National Center for Advancing Translational Sciences (NCATS), 2006)
